# Data: the supplement of paper PMC7266297
# Structures can show the parent of a compound that is named as a salt. This is one part of the list. Repeats are few or missing, and single values can be far off.
# Assays:
# KB-3-1 = assay: growth inhibition relative to DMSO control (SRB); cervical cancer cells: KB-3-1 is the parent and KB-V1 overexpresses MDR1; SRB is the sulforhodamine B stain; higher = more growth inhibition; settings: 1 µM; 72 h
# KB-V1 = assay: as above; settings: 1 µM; 72 h
# 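Further: Read-out is SRB optical density at 490 nm, with the control being wells given 0.5% DMSO vehicle, and compound added one day after cells were plated.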
Structure (SMILES),growth inhibition (KB-3-1) [%],growth inhibition (KB-V1) [%]
CNCc1ccc(-c2[nH]c3cc(F)cc4c3c2CCNC4=O)cc1,39.3,36
CNC(=O)Nc1ccc(-c2nc(N3CC4CCC(C3)O4)c3cnn(C4CCC5(CC4)OCCO5)c3n2)cc1,70.4,67.8
CCS(=O)(=O)Nc1ccc2c(c1)/C(=C(/Nc1ccc(CN3CCCCC3)cc1)c1ccccc1)C(=O)N2 [Hesperadin],73,69.3
C[C@H](CS)C(=O)N1CCC[C@H]1C(=O)O [Captopril],23.8,22.3
COc1cc(Nc2nc3ccccc3nc2NS(=O)(=O)c2ccc(NC(=O)c3ccc(C)c(OC)c3)cc2)cc(OC)c1,30.5,15.8
CC(C)c1nc(CN(C)C(=O)N[C@@H](CCN2CCOCC2)C(=O)N[C@H](CC[C@H](Cc2ccccc2)NC(=O)OCc2cncs2)Cc2ccccc2)cs1 [Cobicistat (GS-9350)],3.97,0.515
Cc1cc(C(C)(C)C)c(O)c(C)c1CC1=NCCN1 [Oxymetazoline HCl],27.8,4.26
O=C(O)c1cc2cccc([N+](=O)[O-])c2[nH]1,53.5,9.26
Oc1nc(-c2ccc(C(F)(F)F)cc2)nc2c1CSCC2,37.7,45.8
CCN(CCCOc1ccc2c(Nc3cc(CC(=O)Nc4cccc(F)c4)[nH]n3)ncnc2c1)CCOP(=O)(O)O [Barasertib (AZD1152-HQPA)],73.7,49.9
O=C(O)CC[C@H]1CC[C@@](c2cc(F)ccc2F)(S(=O)(=O)c2ccc(Cl)cc2)CC1,< 0,< 0
O=C(/C=C/c1ccc(CN(CCO)CCc2c[nH]c3ccccc23)cc1)NO [LAQ824 (Dacinostat)],95,97.2
CCN(CC)CC(=O)Nc1c(C)cccc1C [Lidocaine],4.87,33.3
CC(C)NCC(O)COc1cccc2ccccc12 (stereo unspecified) [Propranolol HCl],21.8,0.282
NC(=O)c1cccc(-c2cccc(OC(=O)NC3CCCCC3)c2)c1,24.2,< 0
COc1ccc(-c2ccc3c(N4CCOCC4)nc(N4C[C@@H](C)O[C@@H](C)C4)nc3n2)cc1CO,85.2,81.5
CCCC(=O)Nc1ccc(OCC(O)CNC(C)C)c(C(C)=O)c1 (stereo unspecified) [Acebutolol HCl],< 0,< 0

Structure (SMILES),growth inhibition (KB-3-1) [%],growth inhibition (KB-V1) [%]
OCCn1cc(-c2ccc3c(c2)CC/C3=N\O)c(-c2ccncc2)n1,4.91,20.4
CN1CCC(=C2c3ccccc3CCc3cccnc32)CC1 [Azatadine dimaleate],< 0,3.17
O=S(=O)(c1cccc2cnccc12)N1CCCNCC1 [Fasudil (HA-1077) HCl],25,15.3
CCCNS(=O)(=O)Nc1ncnc(OCCOc2ncc(Br)cn2)c1-c1ccc(Br)cc1 [Macitentan],45,< 0
"CC[C@H](Nc1ncnc2[nH]cnc12)c1nc2cccc(F)c2c(=O)n1-c1ccccc1 [CAL-101 (Idelalisib, GS-1101)]",0.943,< 0
C[C@@]1(c2cc(-c3cncnc3)c(F)cc2F)CCSC(N)=N1,28,19.6
O=c1cc(-c2cccc3c2Sc2ccccc2S3)oc(N2CCOCC2)c1,18.3,23.6
CNC(=O)[C@H](Cc1ccccc1)NC(=O)[C@H](CC(C)C)[C@H](CSc1cccs1)C(=O)NO [Batimastat (BB-94)],11.1,< 0
Cc1ccc(S(=O)(=O)c2ccc([N+](=O)[O-])o2)cc1,< 0,< 0
CC(C)N(CCCNC(=O)Nc1ccc(C(C)(C)C)cc1)C[C@H]1O[C@@H](n2cc(Br)c3c(N)ncnc32)[C@H](O)[C@@H]1O,28.9,5.93
CC(C)CN(C[C@@H](O)[C@H](Cc1ccccc1)NC(=O)O[C@H]1CO[C@H]2OCC[C@H]21)S(=O)(=O)c1ccc(N)cc1 [Darunavir Ethanolate],32.6,11.5
Cc1ccc(C(=O)c2cc(O)c(O)c([N+](=O)[O-])c2)cc1 [Tolcapone],< 0,< 0
CC1=C(C(=O)Nc2cc3cn[nH]c3cc2F)C(c2ccc(C(F)(F)F)cc2)CC(=O)N1 (stereo unspecified),63.2,26.5
CCCCC1=NC2(CCCC2)C(=O)N1Cc1ccc(-c2ccccc2-c2nnn[nH]2)cc1 [Irbesartan],30.9,20.9
CN(C)Cc1cccc(N/C(=C2\C(=O)Nc3cc(C(N)=O)ccc32)c2ccccc2)c1,17.4,8.08
CN1CCC(=C2c3ccccc3CC(=O)c3sccc32)CC1 [Ketotifen Fumarate],55.4,9.56
